About 830 (1.9%) of roughly 43,000 compounds were called active. The inconclusive results got no clear call from the source; some entries with a clear call stand among them for comparison. Rule for the calls: active = clear falling dose curves in both reporters; inconclusive = both reporters move, but less clearly or upward; inactive = either reporter flat; the % is the NLuc reporter signal. Potencies of inconclusive entries are left out as doubtful fits.
Experiment: Cell-based coincidence reporter assay to measure PMP22 gene transcription in S16 Pmp22-F2sN cells - Primary screen
Conditions: S16 Pmp22-F2sN Schwann cells (luciferase reporters placed in the Pmp22 gene), FLuc/NLuc coincidence luminescence, 24 h; measured here: NLuc reporter readout, at 57.5 µM (top of the series)
Summary of the method: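 Transcriptional readout in edited S16(c9) cells: two luciferases reported from the Pmp22 locus, measured in turn after 24 h compound incubation.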
Potency is the fitted concentration of half-maximal effect; tags give direction and shape of the fitted curve.

SMILES	Potency
COc1ccc(C2=C(C)C(=O)N(Cc3ccc(C(=O)Nc4cccc(F)c4)cc3)S2(=O)=O)cc1	inconclusive [phenotype inactive, partial curve, poor fit]
CCOC(=O)c1ccc(Nc2nc3nonc3nc2Nc2cccc(C)c2C)cc1	active: 10.6 µM
CN1C(=O)Cc2cc(S(=O)(=O)N3CCN(c4cccc(C(F)(F)F)c4)CC3)ccc21	inconclusive [phenotype inactive, partial curve, poor fit]
Cc1cccc(NC(=O)Cn2cc(C(=O)C3CCCCC3)c3ccccc32)c1C	active: 10 µM
CCN(c1ccc(C)cc1)S(=O)(=O)c1nnc(NC(=O)c2cccs2)s1	inactive
CCOc1ccccc1NC(=O)Cn1ccn(Cc2ccc(C)cc2)c(=O)c1=O	inactive
CCOC(=O)Cn1nc(C)c(NC(=O)COc2ccc(Cl)cc2C)c1C	inconclusive [phenotype inactive, single point]
COc1ccc2c(c1)c1c(c(=O)n(-c3cccc(Cl)c3)c(=O)n1CC(=O)N1CCCC1)n2C	inconclusive [phenotype inactive, partial curve, poor fit]
Cc1ccc(C)c(Cn2c3ccccc3c3cnn(CC(=O)NCc4ccccc4)c(=O)c32)c1	inconclusive [phenotype inactive, partial curve, poor fit]
Cc1cccc2nc(-c3cccc(NS(=O)(=O)c4ccccc4)c3)cn12	inconclusive [phenotype inactive, partial curve, poor fit]
CCC(C)NC(=O)CSc1nc2c(sc3ccccc32)c(=O)n1Cc1ccccc1Cl (stereo not drawn)	inconclusive [phenotype inactive, single point]
CCOc1ccc(NC(=O)CSc2nc3c(oc4ccccc43)c(=O)n2CCOC)cc1	inconclusive [phenotype inactive, single point]
Cc1ccc(Cl)cc1NC(=O)C(=O)NCC(c1cccnc1)N1CCc2ccccc21 (stereo not drawn)	inconclusive [phenotype inactive, single point]
Cc1ccc(-c2cc(C(F)(F)F)c(C#N)c(SCC(=O)Nc3ccccc3)n2)cc1	inactive
Cc1ccc(CN(Cc2ccco2)C(=O)COc2ccc(C(C)C)cc2)cc1	inconclusive [phenotype inactive, single point]
COc1ccc(C)cc1-n1nnc(-c2nc(-c3ccccc3Cl)no2)c1N	inconclusive [phenotype inactive, single point]
CCOC(=O)c1ccc(NC(=O)c2c(NCc3cccs3)sc3c2CCCC3)cc1	inconclusive [phenotype inactive, single point]
O=c1c(S(=O)(=O)c2ccccc2)cn(Cc2cccc(F)c2)c2cc(N3CCOCC3)c(F)cc12	inconclusive [phenotype inactive, single point]
Cc1oc2ncnc(N3CCOCC3)c2c1C(=O)N(Cc1ccccc1)C(C)C	inactive
CCOc1ccc(C2Nc3c(C)cccc3-c3cc(C)nn32)cc1 (stereo not drawn)	inactive
Cc1ccccc1Cn1c2ccccc2c2cnn(CC(=O)NCCc3ccccc3)c(=O)c21	inconclusive [phenotype inactive, single point]
COc1cc(-c2noc(CCC(=O)Nc3cc(C)ccc3C)n2)cc(OC)c1OC	inconclusive [phenotype inactive, single point]
Cc1cc(C)cc(NC(=O)C2CCCN(C(=O)c3cnn(-c4ccccc4)c3-n3cccc3)C2)c1 (stereo not drawn)	inconclusive [phenotype inactive, partial curve]
